Assay results: the supplement of paper PMC3334620
Over roughly 33,000 sequences, “E-score (-0.5 to 0.5)” has its median near -0.021; the highest 2% begin near 0.32. The list shows a part of the results.

What follows are sequences tested against T1, Zap1 (UniProt P47043) (assay: PBM E-score (8-mer binding enrichment) (E-score (-0.5 to 0.5)); higher = stronger / more preferred TF binding; most listed sequences are background and not binding sites). Details: protein concentration: 200 nM; construct: GST-full length.
T1 sequence: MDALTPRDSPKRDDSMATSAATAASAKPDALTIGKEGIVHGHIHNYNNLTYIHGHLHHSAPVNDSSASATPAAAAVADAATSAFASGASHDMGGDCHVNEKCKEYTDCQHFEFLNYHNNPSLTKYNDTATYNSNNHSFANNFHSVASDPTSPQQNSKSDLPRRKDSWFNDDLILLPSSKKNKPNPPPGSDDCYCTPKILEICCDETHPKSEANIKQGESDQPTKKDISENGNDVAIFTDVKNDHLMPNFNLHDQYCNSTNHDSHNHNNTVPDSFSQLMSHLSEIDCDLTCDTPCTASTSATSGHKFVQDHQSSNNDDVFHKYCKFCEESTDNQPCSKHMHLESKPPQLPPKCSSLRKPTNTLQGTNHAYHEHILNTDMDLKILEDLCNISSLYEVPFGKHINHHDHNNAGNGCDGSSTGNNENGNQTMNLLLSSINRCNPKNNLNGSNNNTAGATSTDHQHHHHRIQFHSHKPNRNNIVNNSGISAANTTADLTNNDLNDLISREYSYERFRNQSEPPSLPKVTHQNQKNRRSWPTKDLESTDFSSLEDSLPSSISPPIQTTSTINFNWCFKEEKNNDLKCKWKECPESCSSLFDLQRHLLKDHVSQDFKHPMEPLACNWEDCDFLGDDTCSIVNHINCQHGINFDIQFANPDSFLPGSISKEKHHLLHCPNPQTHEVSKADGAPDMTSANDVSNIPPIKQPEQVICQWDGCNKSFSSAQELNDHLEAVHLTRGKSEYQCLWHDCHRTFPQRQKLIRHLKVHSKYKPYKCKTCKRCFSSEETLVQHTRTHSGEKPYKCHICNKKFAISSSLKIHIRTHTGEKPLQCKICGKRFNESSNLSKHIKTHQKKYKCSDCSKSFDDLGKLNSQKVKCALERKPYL
Procedure, shortened: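 E-scores (a modified Wilcoxon-Mann-Whitney statistic) were assigned by the Universal PBM Analysis Suite to every ungapped eight-base word pooled with its reverse complement. The input came from universal all-10-mer Agilent arrays made double-stranded by primer extension and probed with GST-tagged yeast transcription factors at about 100-200 nM. Fluorescent anti-GST detected bound protein, and masliner normalised the scans.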

Row | Sequence | PBM E-score
1 | ACGACGCC | -0.251
2 | CCGCTGCC | -0.27
3 | CAAATACC | 0.213
4 | AGGTGCGA | -0.0972
5 | GCTGCTGA | -0.149
6 | AGAAAGAA | -0.0809
7 | AACCCCAG | 0.304
8 | AACTGCGA | -0.221
9 | ATTTTTCC | 0.0562
10 | CTGGAAGA | -0.0219
11 | AACCCCCG | -0.149
12 | TAGATAGA | -0.0636
13 | TCATTCGA | 0.0152
14 | ATTGCAAC | 0.0809
15 | CCAACGCC | -0.182
16 | AAACCGGG | 0.265
17 | CAAGCTGG | -0.204
18 | CTAGTTCA | -0.00273
19 | AGATCGGC | -0.193
20 | AGGGATAG | -0.03
21 | AGTCACAC | -0.299
22 | TACTGATA | 0.216
23 | AGATGTAG | -0.103
24 | CTTTTTGC | 0.00228
25 | ATTTAGAC | 0.103

Row | Sequence | PBM E-score
26 | GCGCGTAA | -0.091
27 | AAAGAACC | 0.284
28 | GCAGCGTA | -0.277
29 | AAAGGCCT | 0.107
30 | AACTTTCA | 0.252
31 | GCTCTCCA | -0.183
32 | CTGACCGA | -0.0913
33 | ATACGCAA | 0.158
34 | ACTGGGGA | -0.158
35 | AACTGGAC | 0.00749
36 | AGTCTTGA | -0.0607
37 | AAGAAGCG | -0.162
38 | CGATTCAC | -0.227
39 | AATTATCA | 0.154
40 | AGGACACG | -0.106
41 | AGGGTCGC | 0.364
42 | GAACGAGC | -0.119
43 | AATAAGCA | 0.0757
44 | ACGCCAAG | -0.159
45 | CCGGGCTC | -0.232
46 | GCGGGAAC | -0.224
47 | CCCACCAC | 0.173
48 | GATGGTGA | -0.0368
49 | AACCTCCA | 0.0742
50 | GACTGCGA | -0.0511

Row | Sequence | PBM E-score
51 | CTAACGTC | -0.0612
52 | CACGAACG | -0.172
53 | CGCTGGAG | -0.157
54 | ATCTACCA | 0.102
55 | ACCGCCTG | -0.0532
56 | GAGGACTA | -0.121
57 | GAGTGACA | -0.074
58 | ATGCCTAA | -0.208
59 | ACTCGGGC | -0.298
60 | ATTTCCCC | -0.231
61 | GATGCACA | -0.163
62 | GTTGTCGA | 0.0841
63 | ATGATGTA | 0.0657
64 | AGCACATA | 0.0424
65 | ATGCTTTC | -0.0842
66 | GGTATTTA | 0.082
67 | AAAAGAAG | 0.0154
68 | GAACTTGA | 0.0747
69 | ACGGACCG | -0.0571
70 | AGGTGGTG | 0.136
71 | GATGATCC | -0.0878
72 | CTATAGAA | 0.0447
73 | CCGGAGAG | -0.149
74 | CTAACCGC | 0.223
75 | CTAACTCC | -0.133

Row | Sequence | PBM E-score
76 | TTATCGAA | 0.152
77 | ATCGTAGA | -0.17
78 | AACGAGAA | 0.0322
79 | AACGAAAA | 0.0813
80 | CTTACGTA | -0.134
81 | TAGTCGGA | -0.0573
82 | ACTAACCG | 0.144
83 | ATAAGAAA | 0.105
84 | ACCCGAGT | 0.139
85 | TACCTACA | 0.137
86 | AACTTTCC | -0.0817
87 | ACGGAGAC | 0.0642
88 | GCTAGCGA | -0.0935
89 | ACAAAGCG | 0.127
90 | GATTAACA | 0.139
91 | ATGCTAGA | -0.172
92 | ACCGAACC | -0.109
93 | GGCGTATA | -0.085
94 | AAGTTATA | 0.184
95 | ACAGCCGT | -0.123
96 | CGTAGGAA | -0.156
97 | ATTAGCAG | -0.17
98 | CCATTGGC | -0.107
99 | AGTTTCGA | -0.031
100 | TCATTAGA | 0.097

Row | Sequence | PBM E-score
101 | AGACCTGG | -0.129
102 | ATTACTAC | -0.0837
103 | TCGCGCCA | 0.044
104 | CGGCTCGA | -0.172
105 | ATGGATGG | -0.128
106 | ATTACCGG | 0.125
107 | TCTAGTAA | 0.109
108 | CATCCTGG | -0.118
109 | GCTCGAGA | -0.159
110 | ACGACGCT | -0.172
111 | ACAATAAA | 0.0666
112 | CCCGTTAA | 0.0396
113 | ATAGCTAC | -0.082
114 | AACATTGG | -0.21
115 | ACTGTCAC | 0.0771
116 | AGACATCA | -0.0482
117 | AGGTGTTA | -0.0266
118 | CGACGTCC | -0.136
119 | GCTTATGA | 0.0321
120 | GGCCATGA | 0.194
121 | GTTGTACA | 0.242
122 | GCCGTTGA | -0.0818
123 | CGGGGTCC | 0.0501
124 | GCTCGATA | -0.135
125 | AGATCTCA | -0.0481

Row | Sequence | PBM E-score
126 | GAGAACGA | -0.0214
127 | AAGGGTCG | 0.36
128 | CGCATCCA | 0.0236
129 | GTAGTGAC | 0.0821
130 | GGCTGTAA | -0.0332
131 | CATCGACG | -0.272
132 | AGGCATTA | -0.208
133 | TCTCTGCA | -0.00433
134 | CGGGGATA | 0.00971
135 | CCACATCG | 0.0835
136 | AAGTTGTA | 0.112
137 | CGATTATC | -0.0531
138 | AAACAACA | 0.0829
139 | ATAATTTG | 0.164
140 | ACGCCACC | -0.144
141 | TCTGAAGA | -0.202
142 | CGCTGAGC | -0.355
143 | CCTACGAC | -0.0151
144 | TCGTAAAA | 0.0905
145 | ACACGGCC | -0.077
146 | CCAACCAA | 0.00471
147 | AGGCGGTG | -0.0271
148 | CAGCCCTC | -0.196
149 | CCTCTGCA | -0.0993
150 | ACTAGCCG | -0.177

Row | Sequence | PBM E-score
151 | TCATGCCA | -0.126
152 | CTATGGCA | -0.0888
153 | CTCTCCAA | -0.0435
154 | ATGGCACA | -0.0739
155 | CCGTTGAG | -0.184
156 | TCTTTTAA | 0.195
157 | ACCGTAAG | 0.101
158 | CCGCGGGA | 0.0216
159 | CAAAAGTA | 0.16
160 | AAGTCTCG | -0.0214
161 | CCGGAGGA | -0.228
162 | ATGGGCTA | 0.128
163 | ACTAACTA | 0.0988
164 | AGTTGGGC | -0.094
165 | GGTTTTTA | 0.243
166 | GACCGAAA | 0.117
167 | AGTCTGAC | -0.0587
168 | GATGGCAC | -0.235
169 | AAAACTGA | 0.0781
170 | CGCGACCA | 0.213
171 | GGTGGGTA | 0.233
172 | ATCCTTCG | -0.0734
